From PubChem BioAssay AID1030 (National Center for Advancing Translational Sciences (NCATS), 2008)
Among all 220,000 compounds or so, about 16,000 (7.3%) were called active. This list was built around the results that the source calls inconclusive (neither active nor inactive); the mix of calls is not that of the screen. The call rests on the fitted dose curve; in most records, active means well fitted inhibition curve with a large enough effect (not every such curve was filed as active); inconclusive means small, poorly fitted or top-dose-only effect, or another doubt; inactive means no such curve, though single readings can be large or run the other way. Potencies of inconclusive entries are doubtful fits and often do not repeat.

Each compound was assayed against Aldehyde dehydrogenase 1A1 (Homo sapiens) (UniProt P00352) (assay: qHTS Assay for Inhibitors of Aldehyde Dehydrogenase 1 (ALDH1A1)). Settings: Purified ALDH1A1, NADH fluorescence, propionaldehyde substrate; series mostly up to 75.3 µM; activity, negative = inhibition: at the top concentration.
Potency means the concentration at half of the fitted maximal effect; tags describe the fitted curve by direction and shape.
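Wherever activity, negative = inhibition is given: plate controls were no enzyme wells and a reference inhibitor.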

UniProt P00352, sequence (P00352 whole entry, looked up): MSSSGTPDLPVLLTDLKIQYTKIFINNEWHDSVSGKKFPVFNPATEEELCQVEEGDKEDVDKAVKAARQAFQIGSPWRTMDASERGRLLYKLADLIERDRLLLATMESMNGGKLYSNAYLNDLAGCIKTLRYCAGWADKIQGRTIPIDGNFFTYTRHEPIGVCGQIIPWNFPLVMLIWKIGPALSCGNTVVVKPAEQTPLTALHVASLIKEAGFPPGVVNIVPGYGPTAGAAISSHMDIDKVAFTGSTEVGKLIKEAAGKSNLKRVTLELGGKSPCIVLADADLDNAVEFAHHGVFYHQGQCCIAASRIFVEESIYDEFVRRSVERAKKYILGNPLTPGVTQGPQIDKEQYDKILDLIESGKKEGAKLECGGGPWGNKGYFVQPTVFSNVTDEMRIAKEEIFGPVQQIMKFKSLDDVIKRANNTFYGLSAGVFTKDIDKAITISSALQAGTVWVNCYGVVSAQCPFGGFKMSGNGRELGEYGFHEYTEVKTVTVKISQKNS

activity, negative = inhibition, inactive:
Cc1ccccc1-c1cc(N2CCN(C)CC2)ncn1 12.1%, COc1cc(C(=O)OCC(=O)N(C)Cc2ccccc2)cc(OC)c1OC 2.01%, Cc1ccc(NC(=O)Nc2ccccc2C(N)=O)cc1 2.66%, CC(C)C[C@@H](CC(=O)N[C@@H](CCC(=O)O)CC(=O)O)NC(=O)[C@@H]1CCCC[C@H]1NC(=O)C[C@@H](NC(=O)C[C@H](Cc1c[nH]c2ccccc12)NC(=O)[C@@H]1CNCC[C@H]1N)C(C)C 9.77%, CC(=O)N/N=C(\C)c1cccc(C(F)(F)F)c1 1.98%, CCc1nnc(NC(=O)CCC(=O)NCc2ccc(OC)cc2)s1 -5.75%, COc1ccc(/C=C/C(=O)Oc2cccc(/C=N/NC(=O)COc3c(C)cccc3C)c2)cc1 9.51%, Cc1cc(NC(=O)c2cc(-c3ccccc3C)nc3ccccc23)no1 -4.7%, CCC(Oc1ccccc1)C(=O)Nc1nnc(C(F)(F)F)s1 (configuration not stated) -10.9%, COc1cccc(-n2cnc3sc(C)c(C)c3c2=O)c1 -3.52%, Nc1ncnc2c1ncn2[C@@H]1O[C@H](C(=O)NC2CC2)[C@@H](O)[C@H]1O 3.54%, O=C(O)c1ccc(CN2CCOCC2)o1 3.67%, CCN(CC)C(=O)CSc1ncnc2sc(C)c(C)c12 -5.54%, CC(C)CNC(=O)Cn1nc(C(F)(F)F)c2c1CCCC2 5.43%, CCc1ccc(CN2C(=O)c3ccccc3C2C(=O)NCc2cccnc2)cc1 (configuration not stated) -6.79%, C=CCN(CC=C)C(=O)C1CC(=O)N(c2ccc(Br)cc2)C1 (configuration not stated) 0.575%, Cc1cccc(C)c1OCc1nc2ccccc2c(=O)n1/N=C/c1c[nH]c2ccccc12 -7.64%, CCCCCCCCCCCCCCCCCC(=O)NCC(COP(=O)([O-])OCC[N+](C)(C)C)OCC (configuration not stated) -6.34%, Cn1cnnc1SC(C(=O)Nc1ccc(F)cc1)c1ccccc1 (configuration not stated) 18.1%

Potency, inconclusive:
COc1ccccc1-n1c(CNC(=O)c2ccc(S(=O)(=O)N3CCOCC3)cc2)n[nH]c1=S 39.8 µM [inhibitor, single point], COc1cc(NC(=O)c2ccc(Br)o2)ccc1NC(=O)c1ccccc1Cl 39.8 µM [inhibitor, single point], Cc1nc2nc(SCC(=O)c3cccc([N+](=O)[O-])c3)[nH]c2cc1Br 12.6 µM [inhibitor, partial curve], COc1ccc(NC(=O)CSc2nc3ccsc3c(=O)n2Cc2ccccn2)c(OC)c1 20 µM [inhibitor, single point], CCOc1ccc(-n2c(SCC(=O)N3CCc4ccccc43)nnc2-c2c[nH]c3ccccc23)cc1 39.8 µM [inhibitor, single point], CCc1n(CC(O)COC2CCCCC2)c2ccccc2[n+]1C (configuration not stated) 39.8 µM [inhibitor, single point], CCCCN(CC)C(=O)CSc1nc2ccccc2c(=O)n1CC1COc2ccccc2O1 (configuration not stated) 20 µM [inhibitor, partial curve], O=C(CSc1nc2ccc(NC(=O)CSc3nnnn3-c3ccccc3)cc2s1)Nc1ccccc1 39.8 µM [inhibitor, single point], COc1cccc(C(=O)Nc2nc(-c3ccc(S(=O)(=O)N4CCOCC4)cc3)cs2)c1 25.1 µM [inhibitor, single point], CCOc1ccccc1/C=N/NC(=O)Cc1csc(Nc2cccc(C(F)(F)F)c2)n1 31.6 µM [inhibitor, single point], Cc1nc(NC2CCCCC2)c2nc(-c3ccccc3)n(CC3CCN(C)CC3)c2n1 35.5 µM [inhibitor, single point], CN(c1ccccc1)S(=O)(=O)c1ccc(C(=O)N2CCc3ccccc3C2)cc1 22.4 µM [inhibitor, single point], Nc1nn(-c2ccccc2)nc1C(=O)OCc1ccccc1F 35.5 µM [inhibitor, partial curve], Cc1ccc(CN2CCN(CC(=O)NC(C)CCc3ccccc3)C2=O)cc1 (configuration not stated) 25.1 µM [inhibitor, partial curve], Cc1ccc(-n2c(=S)[nH]c3sc4c(c3c2=O)CCC4)cc1 39.8 µM [inhibitor, single point], CCC(=O)N(Cc1cc2c(C)cc(C)cc2[nH]c1=O)C1CCCCC1 15.8 µM [inhibitor, partial curve], CCOC(=O)C1=C(C)N(C)C(=O)NC1c1cc2c(cc1Br)OCO2 (configuration not stated) 31.6 µM [inhibitor, partial curve, poor fit], COc1ccc(-c2coc3c(O)c(OC)ccc3c2=O)cc1 39.8 µM [inhibitor, single point], N#Cc1ccc(CS(=O)(=O)c2nc3ccccc3s2)cc1 39.8 µM [inhibitor, single point], CCCOc1ccc(N2C(=O)CC(N3CCN(c4ccccc4F)CC3)C2=O)cc1 (configuration not stated) 20 µM [inhibitor, single point], COc1ccc(C2C(C(=O)Nc3ccc4c(c3)OCCO4)c3ccccc3C(=O)N2C)cc1 (configuration not stated) 8.91 µM [inhibitor, full curve], CC[n+]1c(C)cc2c(sc3ccccc32)c1C 39.8 µM [inhibitor, single point], COc1ccc(CNc2ccnc(-c3ccccc3Cl)n2)c(OC)c1 17.8 µM [inhibitor, single point], CCOc1ccc(-c2nnn(CC(=O)c3ccc4c(c3)OCCO4)n2)cc1 12.6 µM [inhibitor, partial curve], Cc1ccc2cc3cc(C(=O)NCCN4CCOCC4)oc3nc2c1 28.2 µM [inhibitor, partial curve], CN1CCc2c(OCC(=O)N3CCC(Cc4ccccc4)CC3)cccc2C1=O 31.6 µM [inhibitor, single point], CC1CCCCC1NCC(=O)Nc1ccccc1-c1ccccc1 (configuration not stated) 25.1 µM [inhibitor, single point], O=C(CCCc1nc2ccccc2s1)N1CCN(S(=O)(=O)c2cccs2)CC1 25.1 µM [inhibitor, partial curve], COc1ncc2nc(-c3cccs3)c(=O)n(-c3ccccc3)c2n1 28.2 µM [inhibitor, partial curve], CCNC(=S)/C(=C(/[O-])c1ccc([N+](=O)[O-])cc1)[n+]1ccccc1 35.5 µM [inhibitor, single point], CCn1cc(Br)c(C(=O)Nc2ccccc2C(=O)OC)n1 39.8 µM [inhibitor, single point], O=C(Nc1cccnc1)Nc1cc(Cl)cc(Cl)c1 17.8 µM [inhibitor, partial curve], COc1ccc(OCC(O)CNc2ccc(Br)cc2)cc1 (configuration not stated) 10 µM [inhibitor, partial curve], CC(=O)Nc1c(O)nc(SCC(=O)Nc2sc3c(c2C#N)CCCCCC3)[nH]c1=O 28.2 µM [inhibitor, partial curve], COc1ccccc1CNC(=O)c1nn(-c2ccc(C)cc2)c(=O)c2c1c1ccccc1n2C 14.1 µM [inhibitor, partial curve], CCN(CC)C(=O)CSc1nc2ncc(Cl)cc2[nH]1 28.2 µM [inhibitor, partial curve], COc1ccc(-n2nc(C(=O)NCc3ccco3)c3ccccc3c2=O)cc1 28.2 µM [inhibitor, partial curve], Cc1noc(C)c1S(=O)(=O)N1CCCC(C(=O)N2CCN(C3CCCCC3)CC2)C1 (configuration not stated) 39.8 µM [inhibitor, single point], Cc1ccc(NC(=O)c2ccc(N3C(=O)C4CC=C(Cl)CC4C3=O)cc2)cc1 (configuration not stated) 44.7 µM [inhibitor, single point], O=[N+]([O-])c1cc(N(CCO)CCO)ccc1NCCO 39.8 µM [inhibitor, single point], CNc1ccc(/C=C2\CSc3ccccc3C2=O)cc1[N+](=O)[O-] 4.47 µM [inhibitor, full curve], COc1ccc(CNC(=O)CCSCc2ccccc2Cl)c(OC)c1 35.5 µM [inhibitor, single point]

Potency, active:
CCn1c(C(=O)N2CCCC(C(=O)NCCc3ccc(C)cc3)C2)cc2sccc21 (configuration not stated) 31.6 µM, O=C1c2ccccc2C(=O)C12OC2c1ccc(Cl)cc1 (configuration not stated) 0.794 µM, N#CCCN(Cc1ccccc1)C(=S)NC(=O)c1ccccc1 14.1 µM, CCN(CC)S(=O)(=O)c1cc(NS(=O)(=O)c2cccc(Cl)c2Cl)ccc1C 7.94 µM, NC(=S)N/N=C/c1coc2cc(Br)ccc2c1=O 2 µM, COc1ccc2nc(SCC(=O)N3CCCCCC3)c(C#N)cc2c1 12.6 µM, O=C(COc1c(Br)cc(Br)c2cccnc12)N1CCc2ccccc2C1 11.2 µM, CCOC(=O)c1c(N)sc(C(N)=O)c1C 25.1 µM, COc1cccc(C(CC(=O)NCc2ccco2)NS(=O)(=O)c2ccc(C)cc2)c1OC (configuration not stated) 20 µM, COc1ccccc1Cn1[nH]nnc1=S 3.98 µM, O=C(c1ccc(Cl)cc1)N1CCC(O)(CSc2ccc(Cl)cc2)CC1 15.8 µM
